Measured values taken from PubChem BioAssay AID1346428 (National Center for Advancing Translational Sciences (NCATS), 2018).
The whole screen tested about 48,000 compounds, of which about 1,200 (2.5%) were called active. Another 2% or so got no clear call; they are omitted.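 Rule for the calls: active = activation of at least 60% and not above a set upper limit (about 1 call in 100 departs from these limits); inconclusive = activation of 40% to 60%, or above that upper limit; inactive = activation under 40%.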 The list shows a part of the results.

What follows are compounds tested against Probable G-protein coupled receptor 32 (Homo sapiens) (UniProt O75388) (assay: qHTS for Agonists of Human Resolvin D1 Receptor DRV1). Settings: CHO-K1 GPR32 beta-arrestin PathHunter luminescence, 90 min; at 76.9 µM; stronger effect = higher value; zero percent set by DMSO-only wells.
From the text: Endogenous resolution of inflammation is known to be transduced through various GPCRs and their natural mediators of lipid nature. Resolvin D1 (RvD1) is one of the active players in resolution of acute inflammation through regulation of anti-inflammatory pathways; it is known to enhance phagocytosis of human macrophages, limits neutrophils infiltration, etc. […] The search for GPR32-activating small molecules with anti-inflammatory effects similar to its natural omega-3 derivative ligand in order to use them as research tools for further studies of inflammation and its resolution was the goal of this screening project. For primary screening assay, we used CHO-K1 GPR32 beta-arrestin cell line (DiscoveRx, #93-0321C2A) and the PathHunter(R) beta-Arrestin Assay (DiscoveRx) which measures recruitment of beta-arrestin to the GPR32 and generates chemiluminescent signal. These engineered cells stably transfected with GPR32 co-express GPR32-fused small 42-amino acid fragment of beta-Gal called ProLinktrade mark, and […] -tagged beta-Arrestin fusion protein. When GPR32 is activated by a ligand, it stimulates binding of beta -Arrestin to ProLink-tagged GPR32, and two parts of beta-Gal complement forming a functional enzyme. Upon substrate (PathHunter(R) Detection reagent) addition, beta-Gal hydrolyzes it and generates a chemiluminescent signal.
The cells were thawed and plated in thawing media containing F-12 HAM (Invitrogen, #11765-054), 10% FBS (Invitrogen, #10082), 1x Glutamine, and 1x Pen/Strep onto the 175-mm flask for 24 hours. Then, thawing media was replaced with Growth media which contains 800microg/mL Geneticin (Invitrogen, #10131) and 300microg/mL Hygromycin B (Invitrogen, #10687) in addition to described above. For the assay, the cells were harvested at ~80% confluent stage with Cell Dissociation buffer (Gibco, #13151), and seeded at 2,500 cells/ 3microL/well in assay media (PathHunter(R) Cell Plating Reagent, DiscoverX, #93-0563R1B) using MultiDrop Combi dispenser (Thermo Scientific, Logan, UT) onto white solid bottom tissue culture-treated 1536-well plates (Greiner # 789173-F) and allowed to attach overnight at 37 degrees C, 95% humidity, 5% CO2, . Next, 23nL/well of compound solutions in DMSO were added with a Pin Tool (Kalypsis, San Diego, CA) to the assay plates. As the basal control (EC0), 23 nL/well of DMSO was used on each plate. The cells were incubated in the presence of compounds or DMSO for 90 minutes at 37 degrees C, 5% CO2. Subsequently, 1.5microL/well of PathHunter(R) Detection Reagent prepared per the manufacturer's instructions was added to the assay plates with BioRAPTR FRDtrade mark dispenser (Beckman Coulter, San Francisco, CA) and incubated for 1 hour at ambient temperature prior to the measurement of the luminescent signal on ViewLux(R) uHTS Microplate Imager (Perkin Elmer, Waltham, MA).

Chain of UniProt O75388 (O75388 whole entry, looked up): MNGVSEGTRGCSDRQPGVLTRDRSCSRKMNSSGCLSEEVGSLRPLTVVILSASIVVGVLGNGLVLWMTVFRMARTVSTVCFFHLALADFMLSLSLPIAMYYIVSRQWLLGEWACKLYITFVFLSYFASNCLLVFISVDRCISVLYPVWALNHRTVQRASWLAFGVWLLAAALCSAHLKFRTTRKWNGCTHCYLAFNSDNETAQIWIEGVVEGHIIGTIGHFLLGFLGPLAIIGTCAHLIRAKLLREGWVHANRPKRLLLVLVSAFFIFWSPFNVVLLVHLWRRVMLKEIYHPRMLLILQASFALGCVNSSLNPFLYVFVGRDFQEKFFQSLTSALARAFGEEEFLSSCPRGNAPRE

Compound | activation
C=Cc1ccc(Cn2c(C(=O)O)c(CNC3CCCCC3)c3ccc(C)cc32)cc1 | inactive: -14.3%
COc1ccc(CCn2c(=O)c3cccnc3n(CC(=O)Nc3ccc(C)c(F)c3)c2=O)cc1OC | inactive: 5.73%
COc1ccc(-c2nnc(SCC(=O)Nc3cccc(C(F)(F)F)c3)nc2-c2ccc(OC)cc2)cc1 | inactive: -10.9%
CN1C(=O)Cc2cc(S(=O)(=O)N3CCN(c4ccc(Cl)cc4)CC3)ccc21 | inactive: -20.4%
CCOC(=O)c1[nH]c2c(c1Cc1ccccc1C)C(=O)CC(c1cc(OC)ccc1OC)C2 (centres undefined) | inactive: -20.1%
CC(C)COc1ccc(C(=O)Nc2cc3nn(-c4ccccc4)nc3cc2Cl)cc1 | inactive: 0.579%
CCc1nn2c(=O)cc(COc3ccc(/C=C(\C#N)C(=O)Nc4ccc(F)cc4)cc3OC)nc2s1 | inactive: -4.63%
COc1cccc(Cn2c(CNS(=O)(=O)c3ccc(F)c(Cl)c3)nc3cccnc32)c1 | inactive: -18.9%
O=C(COc1ccccc1)NCCc1csc(-c2ccc(Cl)cc2)n1 | active: 95%
O=C(c1ccc2c(c1)OCCO2)N(Cc1cccnc1)c1nc2c(Cl)cccc2s1 | inactive: -26.6%
CCOc1ccc(OCC)c(NC(=O)C2CCN(S(=O)(=O)c3c(C)noc3/C=C/c3ccccc3F)CC2)c1 | inactive: -4.29%
O=S(=O)(NCC(c1cccs1)S(=O)(=O)c1ccccc1)c1ccc(F)cc1 (centres undefined) | inactive: -10.1%
CCc1ccc(NC(=O)Cn2c(=O)n(CCC(=O)N3CCc4ccccc4C3)c(=O)c3ccccc32)cc1 | inactive: -1.21%
Cc1ccccc1-c1nn2c(=O)cc(CN3CCN(C(=O)/C=C/c4ccccc4)CC3)nc2s1 | inactive: 31.9%
CCOc1ccccc1CNC(=O)c1cc(-c2ccc(Cl)s2)nc2ccccc12 | inactive: -15.4%
CCn1c2ccccc2c2nnc(SCC(=O)Nc3ccccc3OC)nc21 | inactive: -5.24%
Cc1ccccc1S(=O)Cc1ccc(C(=O)N2CCN(c3cccc(C)c3C)CC2)o1 (centres undefined) | inactive: -1.26%
Cc1ccc(-c2c(CN3CCN(c4cccc(C)c4)C(C)C3)csc2C)cc1 (centres undefined) | inactive: -33.2%
CC(C)CC(=O)N1c2nc(C(C)C)nn2C2(CCCCC2)[C@@H]2CCCC[C@@H]21 | inactive: -9.11%
Cc1ccc2onc(CC(=O)N3CCN(c4ccc(F)cc4)CC3)c2c1 | inactive: -26%
CCN(CC)CCNC(=O)c1c(C)oc2ncnc(N3CCOCC3)c12 | inactive: -7.01%

Compound | activation
Cc1cccc(C)c1OCC(=O)Nc1ncn[nH]1 | inactive: 36.6%
CCOc1ccc(CCNC(=O)c2cnc3sc(N(CC)CC)nn3c2=O)cc1OCC | inactive: -5.84%
COC(=O)/C=C\C(=O)OC | inactive: -7.78%
COC(=O)c1c(NC(=O)c2cc3ccccc3c(=O)o2)sc2c1CCCC2 | inactive: 7.36%
CN(CCCNC(=O)c1cc2c(Cl)nc3ccccc3c2s1)Cc1ccccc1 | inactive: -13.9%
Cc1c(Cl)cccc1NC(=O)CSc1ncc2c(n1)-c1ccccc1N(C)S2(=O)=O | inactive: -11.7%
Cc1cc(C)c(NC(=O)Cn2cc(S(=O)(=O)Cc3ccccc3F)c3ccccc32)c(C)c1 | inactive: -16.5%
COc1ccc(OC)c(CNS(=O)(=O)c2ccc3c(c2)CCCN3C(C)=O)c1 | inactive: 5.22%
COc1ccc(NC(=O)Cn2nnc(C(=O)NCCc3ccccc3)c2N)cc1 | inactive: 26.2%
CC(=O)c1cccc(NC(=O)C(C)n2c(=O)cc(C)c3c(C)nn(-c4ccccc4)c32)c1 (centres undefined) | inactive: -11.5%
COc1ccc(CCNC(=O)c2ccc(Nc3nc4ccccc4n4nnnc34)cc2)cc1OC | inactive: 43.7%
COc1ccccc1NC(=O)N(Cc1nnc2n1CCCCC2)c1ccc(F)cc1 | inactive: 1.56%
Cc1cccc(N(CC(O)Cn2c3ccccc3c3ccccc32)S(=O)(=O)c2ccc(F)cc2)c1 (centres undefined) | inactive: 24.1%
O=C(NCCc1ccccc1)c1ccc2c(c1)N(Cc1ccc(F)cc1)C(=O)c1ccccc1S2(=O)=O | inactive: -31.8%
Cc1noc(Cn2c(=O)c3cc4c(cc3n(CC(=O)Nc3ccc(C(C)C)cc3)c2=O)OCO4)n1 | inactive: -18%
CC(C)NC(=O)Cc1csc2nc(-c3ccccc3)cn12 | inactive: 7.83%
CCc1ccccc1N1CC(c2nc3ccccc3n2CCCCOc2ccccc2OC)CC1=O (centres undefined) | inactive: 31.1%
O=C1CCc2cc(S(=O)(=O)NC(C(=O)Nc3ccc(F)cc3)c3ccccc3)ccc2N1 (centres undefined) | inactive: 22.1%
CNS(=O)(=O)c1ccc(NC(=O)c2nc3nc(C)cc(C(F)F)n3n2)cc1 | inactive: -6.65%
COc1cccc(-c2cc(C(F)(F)F)n3nc(-c4ccc(C)cc4)cc3n2)c1 | inactive: 8.89%
CCN(c1ccccc1)S(=O)(=O)c1ccc(NC(=O)c2cc(=O)c3c(C)cc(C)cc3o2)cc1 | inactive: -11.9%

Compound | activation
Cc1nc2nc(CNC(=O)c3cccc(F)c3)nn2c(C)c1CCC(=O)Nc1ccc(F)cc1 | inactive: 16.6%
COc1cc2c(cc1OC)C(COc1ccc(F)cc1)N(C(=O)C(C)C)CC2 (centres undefined) | inactive: 31.6%
O=c1ccc2ccccc2o1 | inactive: 2.7%
O=c1n(Cc2ccccc2)nc2n1-c1ccccc1OC2 | inactive: 4.3%
CC(C)c1cnc2c(c1SCc1ccc([N+](=O)[O-])cc1)c(=O)n(C)c(=O)n2C | inactive: -13.7%
CCOc1ccc(NS(=O)(=O)c2ccc3[nH]cc(C(=O)N4CCCC4)c(=O)c3c2)cc1 | inactive: -4.79%
Cc1cc(O)c2ccccc2c1O | active: 80.6%
COc1ccc(S(=O)(=O)N(Cc2nc(-c3ccccc3)no2)C2CCCCC2)cc1 | inactive: -25%
Cc1ccccc1C(=O)NCC(c1ccc(N(C)C)cc1)N1CCCC1 (centres undefined) | inactive: -11.3%
Fc1ccc(Nc2nc(SCc3ccc(Cl)cc3)nc3ccccc23)cc1 | inactive: -5.23%
CNC(=O)C1CCC(Cn2c(=O)c3sccc3n(CC(=O)N3CCCCC3C)c2=O)CC1 (centres undefined) | inactive: -8.76%
Cc1cccc(-c2noc(-c3cccnc3NCc3ccccc3Cl)n2)c1 | inactive: -22.6%
O=S(=O)(NCC(c1ccco1)S(=O)(=O)c1ccccc1)c1cc(F)ccc1F (centres undefined) | inactive: -12.9%
O=C(CCS(=O)(=O)c1ccc(Br)s1)Nc1c(F)cccc1F | inactive: 7.25%
COc1cc(C2CC(=O)N(c3ccc(C)c(Cl)c3)C3=C2C(=O)OC3)cc(OC)c1OC (centres undefined) | inactive: 14.1%
COc1ccc(-c2cc(C(F)(F)F)n3nc(C(=O)OC(C)C)cc3n2)cc1 | inactive: -15.1%
Cc1cc2c(n1-c1ccc(C(=O)NCCc3ccc(Cl)cc3)cc1)CCC(C)C2 (centres undefined) | inactive: -12.4%
CCc1ccc2oc(C(=O)Nc3nc(-c4ccc(F)cc4)ns3)c(C)c2c1 | inactive: -2.05%
CCOC(=O)c1cccc(NC(=O)CC2C(=O)N(c3ccccc3)C(=O)N2Cc2ccco2)c1 (centres undefined) | inactive: -15.3%
Cc1c(C2=CCN(S(=O)(=O)c3ccc(Cl)cc3)CC2)c2ccccc2n1CC(=O)N1CCCC1 | inactive: -13.4%
O=C(CC1(O)C(=O)N(CCc2ccccc2)c2ccc(Br)cc21)c1ccccc1 (centres undefined) | active: 60.3%

Compound | activation
CCOc1ccccc1CNC(=O)C1CCN(c2nnc(C)c3c(C)n(-c4ccc(C)cc4)nc23)CC1 | inactive: -8.06%
Cc1cccc(OCC(=O)Nc2ccc(OCc3cc(=O)n4cc(C)ccc4n3)cc2)c1 | inactive: 4.51%
Cc1c(Cl)cccc1NC(=O)C(C)n1nc(C)c2c(C)n(-c3ccccc3)nc2c1=O (centres undefined) | inactive: -10.5%
CC(=O)Nc1ccc(Nc2nc3ccc(Cl)cc3n3cnnc23)cc1 | inactive: 4.07%
COc1ccc(N(Cc2nnc3n2CCCCC3)C(=O)Nc2ccc(Cl)cc2)cc1Cl | inactive: 30.7%
CCC1CCCCN1C(=O)CSc1n[nH]c(-c2ccccc2)n1 (centres undefined) | inactive: -0.325%
Cc1cccc(NC(=O)CSc2cn(CC(=O)N3CCC(C)CC3)c3ccccc23)c1C | inactive: -16.5%
Fc1ccccc1-n1ncc2c1ncn1nc(COc3ccc(Cl)cc3)nc21 | inactive: -8.19%
COc1ccccc1CNC(=O)c1cc(S(=O)(=O)N2CCCCCC2)cn1C | inactive: -3.52%
O=C1CC(c2nnc(Cc3ccc(F)cc3)o2)CN1c1ccccc1 (centres undefined) | inactive: -6.01%
Cc1cccc(N2CCN(S(=O)(=O)c3nnc(NC(=O)c4ccc(Cl)cc4)s3)CC2)c1 | inactive: 3.52%
COc1ccc(OC)c(NC(=O)c2ccc3nc(C(C)C)oc3c2)c1 | inactive: -18.6%
CC(=O)c1cccc(NC(=O)Cn2c(-c3cncs3)nc3ccccc32)c1 | inactive: -11.6%
Cc1ccccc1CN1CCC(CNC(=O)c2cc3ccc4cccnc4c3[nH]2)CC1 | inactive: -5.32%
COc1ccccc1NC(=O)c1sc2nc(C)c(C(=O)Nc3ccc(Cl)cc3)c(-c3ccc(Br)cc3)c2c1N | inactive: 16.3%
CC(C)(C)C(=O)NC1CC(=O)N(c2ccc3c(c2)OCCO3)C1 (centres undefined) | inactive: 2.7%
COc1ccccc1N1CCN(C(=O)c2cc3c(s2)-c2ccccc2OC3)CC1 | inactive: -12.3%
CCc1cccc(NC(=O)c2cc(S(=O)(=O)N3CCCCCC3)cn2C)c1 | inactive: -9.76%
CCOC(=O)Cc1c(C)nc2c(-c3ccc(OC)c(OC)c3)c(C)nn2c1C | inactive: -14.5%
O=C(CCC(=O)N1CC2CCCN2c2ccccc21)NCc1ccccc1F (centres undefined) | inactive: -28.5%
COc1ccc(-c2cc(C(=O)Nc3ccc(C#N)cc3)no2)cc1 | inactive: 5.32%
